Source: PubChem BioAssay AID1768 (National Center for Advancing Translational Sciences (NCATS), 2009)
In all, about 270,000 compounds went through this assay and about 620 (0.23%) were called active. This list was built around the results that the source calls inconclusive (neither active nor inactive); the mix of calls is not that of the screen. Calls come from the whole dose curve; as a rule, active = well fitted inhibition curve with a large enough effect in the polarisation, with a control signal flat (not every such curve was filed as active); inconclusive = small, poorly fitted or top-dose-only effect, or effect the other way, or a change in a side signal; inactive = no such curve, though single readings can be large or run the other way; the % refers to the polarisation. Where the call is inconclusive, the potency comes from a doubtful curve fit. A note “side channel” means that the fit belongs to a control or component signal, not to the main read-out.

target: Menin (Homo sapiens) (UniProt O00255); test: qHTS Assay for Inhibitors Targeting the Menin-MLL Interaction in MLL Related Leukemias: Competition With Texas Red Labeled MLL-derived Mutant Peptide; conditions: fluorescence polarization; series mostly up to 61.6 µM
Chain of UniProt O00255 (O00255 whole entry, looked up): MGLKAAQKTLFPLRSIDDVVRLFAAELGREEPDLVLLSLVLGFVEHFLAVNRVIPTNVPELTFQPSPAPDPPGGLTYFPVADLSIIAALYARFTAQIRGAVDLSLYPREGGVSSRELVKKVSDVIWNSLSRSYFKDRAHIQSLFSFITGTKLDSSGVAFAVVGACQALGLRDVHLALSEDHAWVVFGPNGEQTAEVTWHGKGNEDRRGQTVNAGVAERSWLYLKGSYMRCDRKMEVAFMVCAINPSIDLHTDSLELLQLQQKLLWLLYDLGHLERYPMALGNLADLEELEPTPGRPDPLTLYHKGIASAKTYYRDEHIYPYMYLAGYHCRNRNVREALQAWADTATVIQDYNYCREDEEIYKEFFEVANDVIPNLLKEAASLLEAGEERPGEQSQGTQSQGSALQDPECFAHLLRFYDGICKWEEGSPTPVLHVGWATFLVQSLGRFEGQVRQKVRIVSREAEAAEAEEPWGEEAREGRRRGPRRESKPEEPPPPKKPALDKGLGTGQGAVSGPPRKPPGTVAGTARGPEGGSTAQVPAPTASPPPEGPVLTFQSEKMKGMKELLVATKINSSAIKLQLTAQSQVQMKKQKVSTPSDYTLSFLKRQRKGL
Potency is the fitted concentration of half-maximal effect; tags give direction and shape of the fitted curve or compound fluorescence and quenching.

| SMILES | Potency |
| --- | --- |
| Cc1ccc(C)c(S(=O)(=O)Nc2ccc(O)c3ccccc23)c1 | inconclusive: 25.1 µM [quencher, side channel, single point] |
| O=C(Nc1ccccc1)c1cccc(N2CCCC2=O)c1 | inconclusive: 17.8 µM [quencher, side channel, partial curve] |
| O=C(O)c1cccc(NC(=O)c2cn(-c3ccccc3)nc2-c2ccc([N+](=O)[O-])cc2)c1 | inconclusive: 15.8 µM [quencher, side channel, partial curve] |
| COc1ccc(CNC(=O)[C@H](C)N2C(=O)N3CCc4c([nH]c5ccc(OC)cc45)[C@@]3(C)C2=O)cc1 | inconclusive: 39.8 µM [fluorescent, side channel, single point] |
| O=c1c2cc(Br)ccc2[nH]c(=S)n1Cc1ccccc1 | inconclusive: 25.1 µM [quencher, side channel, single point] |
| CCN1C(=O)C(CC(=O)Nc2ccc(F)cc2)N(Cc2cccs2)C1=S (stereo not given) | inconclusive: 10 µM [quencher, side channel, partial curve] |
| CCOC(=O)C1(CC2CCCCO2)CCN(S(=O)(=O)c2cc(C)cs2)CC1 (stereo not given) | inconclusive: 15.8 µM [fluorescent, side channel, partial curve] |
| COc1ccc(C(=O)Nc2oc(-c3ccccc3)c(-c3ccccc3)c2C#N)cc1 | inconclusive: 35.5 µM [inhibitor, single point] |
| CC1CN(C(=O)c2cc3cc(Br)ccc3[nH]2)CC(C)O1 (stereo not given) | inconclusive: 25.1 µM [quencher, side channel, partial curve] |
| CC1CCCC(C)N1CCCNC(=O)c1ccc2c(c1)NC(=O)c1ccccc1S2 (stereo not given) | inconclusive: 17.8 µM [inhibitor, single point] |
| CCCNc1c(F)c(F)c2c(C)c3ccccc3nc2c1F | inconclusive: 14.1 µM [quencher, side channel, partial curve] |
| COc1ccc([N+](=O)[O-])cc1NC(=O)CSc1ccccc1 | inconclusive: 22.4 µM [quencher, partial curve] |
| O=C(O)c1cc(-c2cccs2)[nH]n1 | inconclusive: 22.4 µM [inhibitor, partial curve] |
| O=C1/C(=C\c2ccccn2)SC(=S)N1Nc1ncc(C(F)(F)F)cc1Cl | inconclusive: 25.1 µM [quencher, side channel, single point] |
| O=C(O)/C=C\C(=O)Nc1ccc(N2CCN(c3cccc(Cl)c3)CC2)cc1 | inconclusive: 22.4 µM [quencher, side channel, partial curve] |
| COc1cc(N=Nc2c(O)c3ccccc3[nH]c2=O)c(OC)cc1N=Nc1ccccc1 | inconclusive: 44.7 µM [quencher, side channel, single point] |
| CC(C)c1ccc(N(CC(=O)NC2CCCC2)C(=O)CCC(=O)Nc2nccs2)cc1 | inconclusive: 22.4 µM [fluorescent, side channel, partial curve, poor fit] |
| CCCOc1cccc(C(=O)Nc2cccc3ncccc23)c1 | inconclusive: 39.8 µM [inhibitor, single point] |
| S=C(Nc1ccccc1)Nc1ccccc1C#Cc1ccccc1 | inconclusive: 8.91 µM [quencher, side channel, partial curve] |
| O=C(O)CN(CC(=O)O)Cc1cc2c(-c3ccccc3C(=O)O)c3cc(CN(CC(=O)O)CC(=O)O)c(=O)cc-3oc2cc1O | inconclusive: 14.1 µM [fluorescent, side channel, partial curve] |
| COc1ccc(CCNC(=O)CSc2nc(-c3ccc(OC)c(OC)c3)ccc2C#N)cc1 | inconclusive: 25.1 µM [fluorescent, side channel, single point] |
| O=C(Nc1cccc2ccccc12)/C(=C\c1cccc([N+](=O)[O-])c1)NC(=O)c1cccs1 | inconclusive: 28.2 µM [quencher, side channel, single point] |
| CCOc1ccc(-n2c(C)cc(/C=C3/C(=N)N4C(=NC3=O)SN=C4S(C)(=O)=O)c2C)cc1 | inconclusive: 20 µM [quencher, side channel, partial curve] |
| CN(NC(=O)NN)c1ncc(C(F)(F)F)cc1Cl | inconclusive: 39.8 µM [fluorescent, side channel, single point] |
| CCOc1ccc2c(c1)C(=NNC(=O)c1ccncc1)c1cc(OCC)ccc1-2 | inconclusive: 35.5 µM [quencher, side channel, single point] |
| O=C(c1ccco1)N1CCCN(Cc2nc(-c3cccs3)no2)CC1 | inconclusive: 22.4 µM [fluorescent, side channel, single point] |
| Oc1ccc(N=Nc2nccs2)c(O)c1 | inconclusive: 17.8 µM [quencher, side channel, partial curve] |
| COc1ccc(NC(=O)NC2(C(=O)N3CCCCC3)CCCCC2)cc1 | inconclusive: 3.16 µM [inhibitor, partial curve] |

| SMILES | Potency |
| --- | --- |
| CC1CCN(S(=O)(=O)c2ccc(C(=O)Nc3nnc(-c4ccco4)o3)cc2)CC1 | inconclusive: 12.6 µM [quencher, side channel, partial curve] |
| CCn1cc(/C=C(\NC(=O)c2ccc(OC)c(OC)c2)C(=O)N2CCOCC2)c2ccccc21 | inconclusive: 28.2 µM [inhibitor, single point] |
| Cc1cn2c(nc(=O)c3cccnc32)s1 | inactive |
| O=C(Nc1ccc2c(c1)oc1ccccc12)c1ccc2c(c1)OCO2 | inconclusive: 3.55 µM [quencher, side channel, single point] |
| O=C(N/N=C/c1c(Cl)[nH]c2ccccc12)c1sc2ccccc2c1Cl | inconclusive: 35.5 µM [quencher, side channel, partial curve] |
| COc1cc(OC)cc(C(=O)NNC(=S)Nc2ccc(S(N)(=O)=O)cc2)c1 | inconclusive: 20 µM [quencher, side channel, partial curve] |
| CCCc1c(C(=O)N/N=C/c2cccc3ccccc23)nnn1-c1nonc1N | inconclusive: 2.82 µM [quencher, side channel, full curve, poor fit] |
| COc1ccc(N(CC(=O)Nc2ccc3c(c2)OCO3)S(=O)(=O)c2ccc(F)cc2)cc1 | inconclusive: 8.91 µM [quencher, side channel, partial curve] |
| CCN(CC)CCNC(=O)c1ccc(NC(=O)/C=C/c2cc(OC)c(OC)c(OC)c2)cc1 | inconclusive: 25.1 µM [inhibitor, single point] |
| CCCCn1c(NC(=O)c2ccccc2)nc2ccccc21 | inconclusive: 20 µM [quencher, side channel, single point] |
| Cc1ccc(O)c(C(=O)/C=C/c2ccc3c(c2)OCCCO3)c1 | inactive |
| O=C(NNc1ccccc1Cl)C(O)(c1cccc(C(F)(F)F)c1)c1cccc(C(F)(F)F)c1 | inconclusive: 12.6 µM [quencher, side channel, partial curve] |
| O=C1CCCN1CCC(=O)N1CCCC(CO)(Cc2ccccc2)C1 (stereo not given) | inactive |
| Cc1c(C(=O)N2CCN(S(C)(=O)=O)CC2)oc2ccccc12 | inconclusive: 0.631 µM [inhibitor, full curve, poor fit] |
| Cc1cc(OCC(O)CNC(C)c2ccccc2)ccc1C(C)C (stereo not given) | inconclusive: 10 µM [fluorescent, side channel, partial curve] |
| Cc1cc(C)c2c(N)c(C(=O)N3CCc4ccccc4C3)sc2n1 | inconclusive: 17.8 µM [fluorescent, side channel, partial curve] |
| O=C(Nc1cc([N+](=O)[O-])ccc1O)c1cccc(C(=O)Nc2cc([N+](=O)[O-])ccc2O)c1 | inconclusive: 44.7 µM [quencher, side channel, partial curve, poor fit] |
| Cc1ccc(Cl)cc1N1CCN(C(=O)C(=O)N2CCCCC2)CC1 | inconclusive: 8.91 µM [fluorescent, side channel, full curve, poor fit] |
| COc1ccc(Br)c(C(=O)N2CCN(S(=O)(=O)/C=C/c3ccccc3)CC2)c1 | inactive |
| CCc1ccc(Nc2ccc(C(N)=O)cc2[N+](=O)[O-])cc1 | inactive |
| OC(CNC1CCCCCC1)COc1cccc2ccccc12 (stereo not given) | inconclusive: 7.94 µM [fluorescent, side channel, full curve] |
| O=C(Nc1cccc([N+](=O)[O-])c1)c1ccc(CN2CCOCC2)cc1 | inconclusive: 39.8 µM [quencher, side channel, single point] |
| COc1ccc(N2CCN(C(=O)CCCOc3cc(=O)n(C)c4ccccc34)CC2)cc1 | inconclusive: 1.12 µM [inhibitor, full curve, poor fit] |
| c1ccc(-c2nnc3sc(Cc4cccs4)nn23)cc1 | inconclusive: 31.6 µM [quencher, side channel, single point] |
| CC(=O)C1=C(O)C(=O)N(c2ccc(Br)cc2)C1c1ccc([N+](=O)[O-])cc1 (stereo not given) | inconclusive: 39.8 µM [quencher, side channel, single point] |
| Cc1ccc2c(CN3CCC(C)CC3)cc(=O)oc2c1C | inconclusive: 15.8 µM [fluorescent, side channel, partial curve] |
| C=CCNc1nc(N2CCCC2)nc2ccccc12 | inconclusive: 39.8 µM [inhibitor, single point] |
